The supplement of paper PMC4604168 (melanoma cell lines)
The other results are listed elsewhere or left out. Repeats are few or missing, and single values can be far off.

What was measured:
Assay in all cases: cell count relative to DMSO control; melanoma cells; higher = more viable cells
Conditions in all cases: library dose: low library concentration; 72 h
COLO792 = test system: COLO792
COLO800 = test system: COLO800
COLO829 = test system: COLO829
G361 = test system: G361
IPC-298 = test system: IPC-298
IST-MEL1 = test system: IST-MEL1
LB2518-MEL = test system: LB2518-MEL
LOXIMVI = test system: LOXIMVI
MEL-HO = test system: MEL-HO
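Note: cell number obtained by counting DAPI-stained nuclei in high-throughput microscope images with image analysis software, screen run in 1,536-well plates.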

Structure (SMILES) | cell count (COLO792) [%] | cell count (COLO800) [%] | cell count (COLO829) [%] | cell count (G361) [%] | cell count (IPC-298) [%] | cell count (IST-MEL1) [%] | cell count (LB2518-MEL) [%] | cell count (LOXIMVI) [%] | cell count (MEL-HO) [%]
N#CC[C@H](C1CCCC1)n1cc(-c2ncnc3[nH]ccc23)cn1 [ruxolitinib] + Cc1cc(N2CCOCC2)cc2[nH]c(-c3c(NC[C@@H](O)c4cccc(Cl)c4)cc[nH]c3=O)nc12 [BMS536924] (first compound 1 µM, partner dose 0.2 µM) | 99.2 | 129 | 134 | 89.5 | 106 | 108 | 118 | 132 | 96.8
N#CC[C@H](C1CCCC1)n1cc(-c2ncnc3[nH]ccc23)cn1 [ruxolitinib] + COc1ccc(COc2ccc(Cc3cnc(N)nc3N)cc2OC)cc1 [GW2580] (first compound 1 µM, partner dose 1 µM) | 116 | 166 | 120 | 94.4 | 102 | 93.5 | 126 | 86.1 | 114
Cc1cc(Nc2cc(N3CCN(C)CC3)nc(Sc3ccc(NC(=O)C4CC4)cc3)n2)n[nH]1 [Tozasertib] + C=CCn1c(=O)c2cnc(Nc3ccc(N4CCN(C)CC4)cc3)nc2n1-c1cccc(C(C)(C)O)n1 [MK1775] (first compound 0.006 µM, partner dose 0.02 µM) | 87.5 | 83.4 | 98.1 | 91.1 | 88.9 | 101 | 68.4 | 122 | 93.1
N#CC[C@H](C1CCCC1)n1cc(-c2ncnc3[nH]ccc23)cn1 [ruxolitinib] + COc1cc2c(Oc3ccc4[nH]c(C)cc4c3F)ncnc2cc1OCCCN1CCCC1 [cediranib] (first compound 1 µM, partner dose 0.4 µM) | 117 | 89.3 | 77.9 | 88.5 | 115 | 101 | 135 | 98 | 90.4
Cc1cc(Nc2cc(N3CCN(C)CC3)nc(Sc3ccc(NC(=O)C4CC4)cc3)n2)n[nH]1 [Tozasertib] + CO[C@@H]1[C@H](N(C)C(=O)c2ccccc2)C[C@H]2O[C@]1(C)n1c3ccccc3c3c4c(c5c6ccccc6n2c5c31)C(=O)NC4 [Midostaurin] (first compound 0.006 µM, partner dose 0.08 µM) | 94.6 | 56.6 | 89.8 | 88.5 | 93.1 | 96.9 | 97.6 | 139 | 98.4
Cc1cc(Nc2cc(N3CCN(C)CC3)nc(Sc3ccc(NC(=O)C4CC4)cc3)n2)n[nH]1 [Tozasertib] + COc1ccc(-c2ccc3c(N4CCOCC4)nc(N4C[C@@H](C)O[C@@H](C)C4)nc3n2)cc1CO [KU0063794] (first compound 0.006 µM, partner dose 0.02 µM) | 78 | 106 | 87.1 | 108 | 97 | 99.8 | 91 | 126 | 95.1
CC[C@]1(O)C[C@H]2CN(CCc3c([nH]c4ccccc34)[C@@](C(=O)OC)(c3cc4c(cc3OC)N(C=O)[C@H]3[C@@](O)(C(=O)OC)[C@H](OC(C)=O)[C@]5(CC)C=CCN6CC[C@]43[C@@H]65)C2)C1 [vincristine] + CCc1ccc(CCOc2ccc(CC3SC(=O)NC3=O)cc2)nc1 [pioglitazone] (first compound 0.0001 µM, partner dose 2 µM) | 98.8 | 110 | 94.1 | 98.7 | 87.5 | 94.1 | 72.8 | 48.2 | 94.7
N#CC[C@H](C1CCCC1)n1cc(-c2ncnc3[nH]ccc23)cn1 [ruxolitinib] + COc1cc(N2CCC(N3CCN(C)CC3)CC2)ccc1Nc1ncc(Cl)c(Nc2ccccc2S(=O)(=O)C(C)C)n1 [NVP-TAE684] (first compound 1 µM, partner dose 0.08 µM) | 96.5 | 120 | 86.5 | 78.2 | 90.1 | 95.7 | 116 | 95.3 | 91
CC[C@]1(O)C[C@H]2CN(CCc3c([nH]c4ccccc34)[C@@](C(=O)OC)(c3cc4c(cc3OC)N(C=O)[C@H]3[C@@](O)(C(=O)OC)[C@H](OC(C)=O)[C@]5(CC)C=CCN6CC[C@]43[C@@H]65)C2)C1 [vincristine] + C[C@@H]1CCN(C(=O)CC#N)C[C@@H]1N(C)c1ncnc2[nH]ccc12 [CP690550] (first compound 0.0001 µM, partner dose 1 µM) | 93.3 | 89.6 | 80.9 | 84.8 | 113 | 94.6 | 96.5 | 114 | 110
